The values below come from the GPR68 mutational scans of Howard et al. (2025).

B1: GPR68, Q15743 (parent)
chain: MGNITADNSSMSCTIDHTIHQTLAPVVYVTVLVVGFPANCLSLYFGYLQIKARNELGVYLCNLTVADLFYICSLPFWLQYVLQHDNWSHGDLSCQVCGILLYENIYISVGFLCCISVDRYLAVAHPFRFHQFRTLKAAVGVSVVIWAKELLTSIYFLMHEEVIEDENQHRVCFEHYPIQAWQRAINYYRFLVGFLFPICLLLASYQGILRAVRRSHGTQKSRKDQIQRLVLSTVVIFLACFLPYHVLLLVRSVWEASCDFAKGVFNAYHFSLLLTSFNCVADPVLYCFVSETTHRDLARLRGACLAFLTCSRTGRAREAYPLGAPEASGKSGAQGEEPELLTKLHPAFQTPNSPGSGGFPTGRLA

The least precise scores are not listed. Two further conditions of the source, in which the scores hardly spread, are not listed. Names with del lack the residues named; names with ins carry added residues between the positions named. For some assays here: The concentration of ogerin is not given here.

Variants of B1 are the subject of data set [1]. Kind of data set: cAMP reporter score (Enrich2 score, wild type = 0); higher = more signal; HEK293T, FACS bins.
Data set [2] covers variants of B1. Kind of data set: surface expression score (Enrich2 score, wild type = 0); higher = more signal; HEK293T, FACS bins.

For T309Q, the cAMP reporter score is -0.154 in data set [1] (pH 5.5); -0.349 in data set [1] (pH 6, modulator: ogerin); 1.56 in data set [1] (pH 6.5, modulator: ogerin). The surface expression score in data set [2] was -0.3.
Take T309F: the cAMP reporter score in data set [1] (pH 5.5) was 0.695; in data set [1] (pH 6) it was -0.547; in data set [1] (pH 6, modulator: ogerin) it was 0.343; in data set [1] (pH 6.5, modulator: ogerin) it was 0.436. Also, the surface expression score in data set [2] is -0.281.
For L308_T309insGSG, in that order: 0.47, 0.587, 0.918, 2.2 and 0.664.
For F307del, in that order: 0.266, 0.734, 0.478, 0.328 and -0.091.
For L305K, the cAMP reporter score in data set [1] (pH 5.5) was 0.129; in data set [1] (pH 6), -0.41; in data set [1] (pH 6, modulator: ogerin) it was 0.009; in data set [1] (pH 6.5, modulator: ogerin), -0.526. For the same variant, the surface expression score in data set [2] was -1.24.
For L305A, in that order: 0.579, 0.276, 0.676, -0.275 and 1.1.
For L305D, in that order: 0.764, 0.224, 0.643, 0.889 and -0.709.
As to L305Q, the cAMP reporter score in data set [1] (pH 5.5) worked out at 0.326; in data set [1] (pH 6, modulator: ogerin) it was 1.41; in data set [1] (pH 6.5, modulator: ogerin), 1.27.
As for L305Y, the cAMP reporter score in data set [1] (pH 5.5) was 1.46; in data set [1] (pH 6), 0.358; in data set [1] (pH 6, modulator: ogerin), 0.957; in data set [1] (pH 6.5, modulator: ogerin) it was 1.31. Moreover, in data set [2], the surface expression score is 0.909.
For L305S, in that order: 0.48, 0.678, 0.548, 0.504 and 0.697.
As to L305C, the cAMP reporter score in data set [1] (pH 5.5) worked out at 0.795; in data set [1] (pH 6.5, modulator: ogerin) it was 1.63. For the same variant, the surface expression score in data set [2] came out at 0.77.
As for L305I, the cAMP reporter score in data set [1] (pH 5.5) was found to be 1.28; in data set [1] (pH 6) it was 0.468; in data set [1] (pH 6, modulator: ogerin), 0.654; in data set [1] (pH 6.5, modulator: ogerin), 1.02. Besides, the surface expression score in data set [2] was 1.84.
For L305M, in that order: 0.203, 0.802, 0.064, 1.02 and 0.409.
As to L305T, the cAMP reporter score in data set [1] (pH 5.5) is 0.576; in data set [1] (pH 6, modulator: ogerin) it was -0.536; in data set [1] (pH 6.5, modulator: ogerin), -0.381. Moreover, the surface expression score in data set [2] came to 2.07.
On to L305W, for which the cAMP reporter score in data set [1] (pH 5.5) is 0.34; in data set [1] (pH 6), -0.555; in data set [1] (pH 6, modulator: ogerin) it was 0.328; in data set [1] (pH 6.5, modulator: ogerin) it was 0.326. Besides, in data set [2], the surface expression score was determined as 0.816.
For L305E, in that order: 0.609, 1.09, 0.589, -0.077 and 0.146.
In the case of L305F, the cAMP reporter score in data set [1] (pH 5.5) was found to be 1.24; in data set [1] (pH 6, modulator: ogerin), 0.541; in data set [1] (pH 6.5, modulator: ogerin) it was 0.879. The surface expression score in data set [2] turned out to be 0.765.
In the case of L305H, the cAMP reporter score in data set [1] (pH 5.5) is 0.206; in data set [1] (pH 6), -0.673; in data set [1] (pH 6, modulator: ogerin), 0.308; in data set [1] (pH 6.5, modulator: ogerin) it was 0.635. Besides, the surface expression score in data set [2] was 0.59.
For L305N, in that order: 0.174, -1.05, 0.328, 0.207 and 0.79.
Regarding L305G, the cAMP reporter score is -0.309 in data set [1] (pH 5.5); 0.335 in data set [1] (pH 6, modulator: ogerin); 1.06 in data set [1] (pH 6.5, modulator: ogerin). In addition, the surface expression score in data set [2] worked out at 0.356.
Consider L305R, for which the cAMP reporter score in data set [1] (pH 5.5) was -0.229; in data set [1] (pH 6), 1.47; in data set [1] (pH 6, modulator: ogerin), 0.455; in data set [1] (pH 6.5, modulator: ogerin), 0.43. Besides, the surface expression score in data set [2] came out at 0.1.
For L305V, in that order: 0.413, 0.395, 0.494, 0.629 and 0.718.
L305P: the cAMP reporter score in data set [1] (pH 5.5) was 0.143; in data set [1] (pH 6) it was -0.615; in data set [1] (pH 6, modulator: ogerin), 0.417; in data set [1] (pH 6.5, modulator: ogerin), -0.039. Also, the surface expression score in data set [2] was determined as 0.15.
For C304_L305del, in that order: -0.219, -0.614, -0.122, -0.979 and -0.143.
For F307_L308del, in that order: -0.137, 0.197, 0.417, -0.086 and -0.025.
For L308del, in that order: 0.014, -0.727, 0.069, -0.435 and -0.467.
For A306_F307insGS, the cAMP reporter score is -0.186 in data set [1] (pH 5.5); -0.597 in data set [1] (pH 6); -0.607 in data set [1] (pH 6, modulator: ogerin); -0.82 in data set [1] (pH 6.5, modulator: ogerin). Further, the surface expression score in data set [2] is -1.13.
For C304Y, in that order: -0.639, -0.247, -0.655, -0.054 and -0.834.
For L305_A306insG, in that order: 1.01, 0.759, 0.993, 1.15 and 0.406.
For T309_C310insGS, in that order: 0.997, 0.983, 0.712, 1.69 and 1.25.
Regarding F307_L308insG, the cAMP reporter score in data set [1] (pH 5.5) is -0.105; in data set [1] (pH 6), 1.25; in data set [1] (pH 6, modulator: ogerin) it was 0.593; in data set [1] (pH 6.5, modulator: ogerin), -0.353. Besides, in data set [2], the surface expression score is -0.416.
For L308_C310del, in that order: 0.527, -0.581, 0.742, 0.973 and -0.656.
